{"source": "PubChem BioAssay AID504832", "about": "(National Center for Advancing Translational Sciences (NCATS), 2011)", "note": "Hit rate of the full screen: of about 310,000 compounds, about 18,000 (5.8%) were called active. Inconclusive results, whose numbers are uncertain, are shown with a selection of clear calls. Calls come from the whole dose curve; as a rule, active = well fitted inhibition curve with a large enough effect; inconclusive = small, poorly fitted or top-dose-only effect, or another doubt; inactive = no such curve, though single readings can be large or run the other way. Potencies of inconclusive entries are left out as doubtful fits. % is set by controls: 0 for no effect and ±100 for the full control effect; potency is the fitted concentration of half-maximal effect; tags give direction and shape of the fitted curve."}
{"assay": "Primary qHTS for delayed death inhibitors of the malarial parasite plastid, 48 hour incubation", "settings": "P. falciparum luciferase growth in erythrocytes; series mostly up to 28.7 µM; activity change, negative = inhibition: at the top concentration", "procedure,_shortened": "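Luminescence readout; reporter = integrated firefly luciferase in P. falciparum. RBC culture at 2% hematocrit, 0.1% parasitemia final, 37 C/5% CO2; decreased signal taken as growth inhibition.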"}
{"compound": "Cc1ccc(NC(=O)CNCc2ccc(Cl)cc2Cl)cc1S(=O)(=O)N(C)C", "activity change, negative = inhibition": "inactive: -6.34%"}
{"compound": "CCC(=O)Nc1nnc(CSCc2ccccc2)s1", "activity change, negative = inhibition": "inactive: -2.3%"}
{"compound": "COc1ccc(C(C)(C)C)cc1NC(=O)CCNC(=O)c1ccco1", "Potency": "inconclusive [inhibitor, partial curve, poor fit]"}
{"compound": "Cc1cccc(-c2csc(N)c2C(=O)OC(C)C)c1", "Potency": "inconclusive [inhibitor, single point]"}
{"compound": "Cc1cccc(CN2CCN(Cc3cnn(-c4ccccc4F)c3)CC2CCO)n1", "note": "(stereo not given)", "Potency": "inconclusive [inhibitor, full curve, poor fit]"}
{"compound": "COc1ccccc1CNC(=O)CN1CCC(n2cnc3cc(F)ccc32)CC1", "Potency": "active: 10.4 µM"}
{"compound": "CCOc1ccccc1NC(=O)c1oc2ccccc2c1NC(=O)C1CC1", "Potency": "inconclusive [inhibitor, single point]"}
{"compound": "O=C(NCc1ccccn1)c1cc(-c2ccc(-c3ccccc3)cc2)nc2ccccc12", "Potency": "inconclusive [inhibitor, single point]"}
{"compound": "O=C(Nc1ccc2c(c1)OCCO2)c1cncc(Br)c1", "activity change, negative = inhibition": "inactive: -14.7%"}
{"compound": "COc1cccc(/C(O)=C/c2nc3ccc(C(=O)NCCc4cccc(C)c4)cc3[nH]c2=O)c1", "Potency": "active: 8.28 µM"}
{"compound": "COc1ccc([N+](=O)[O-])cc1NC(=O)Nc1ccc(OC)c(OC)c1", "Potency": "inconclusive [inhibitor, single point]"}
{"compound": "CCCn1cnnc1CNC(=O)C1CCC(=O)N(CCCc2ccccc2)C1", "note": "(stereo not given)", "activity change, negative = inhibition": "inactive: 15.5%"}
{"compound": "Cc1nc2ccc(NC(=O)c3cc(S(=O)(=O)N(C)c4ccccc4)ccc3Cl)cc2s1", "Potency": "active: 1.31 µM"}
{"compound": "COc1ccc(S(=O)(=O)NC2CCCCC2)cc1C(=O)N1CCCCC1", "Potency": "inconclusive [inhibitor, full curve, poor fit]"}
{"compound": "O=C(NCc1ccccc1)c1onc(CSc2ccc(F)cc2)c1C(=O)NCCCN1CCOCC1", "Potency": "inconclusive [inhibitor, partial curve]"}
{"compound": "COc1ccc(OC)c(S(=O)(=O)NC(N)=NCCc2ccccc2OC)c1", "activity change, negative = inhibition": "inactive: 3.97%"}
{"compound": "COC(=O)c1cc(C(=O)c2cc(F)ccc2O)cn2c(=O)c3c(C)c(C)sc3nc12", "Potency": "active: 2.08 µM"}
{"compound": "CC(C)(C)c1ccc(CN2C(=O)c3ccccc3S2(=O)=O)cc1", "Potency": "inconclusive [inhibitor, full curve]"}
{"compound": "O=C(CC1C(=O)NCCN1C(=O)Nc1ccccc1)Nc1cc(Cl)ccc1Cl", "note": "(stereo not given)", "activity change, negative = inhibition": "inactive: -1.78%"}
{"compound": "O=C1CC(c2ccc3ccccc3c2)NN1", "note": "(stereo not given)", "activity change, negative = inhibition": "inactive: 0.858%"}
{"compound": "CC(C)C(NC(=O)c1ccccc1)c1nnc(SCC(=O)Nc2nccs2)n1C", "note": "(stereo not given)", "Potency": "inconclusive [inhibitor, partial curve, poor fit]"}
{"compound": "N#CC1=C(N)OC2=C(C(=O)CCC2)C1c1cc2c(cc1Br)OCO2", "note": "(stereo not given)", "activity change, negative = inhibition": "inactive: 12.3%"}
{"compound": "O=C(/C=C/c1ccco1)NC(=S)Nc1ccc(N2CCOCC2)c(Cl)c1", "activity change, negative = inhibition": "inactive: 0.989%"}
{"compound": "COc1cc(NC(=O)c2ccc3c(SCC(=O)O)c4c(nc3c2)CCCC4)cc(OC)c1OC", "activity change, negative = inhibition": "inactive: 14.9%"}
{"compound": "Cc1ccc(NC(=O)c2ccccc2)cc1C", "Potency": "inconclusive [inhibitor, single point]"}
{"compound": "CN1/C(=C\\C(=O)COC(=O)c2ccc([N+](=O)[O-])o2)C(C)(C)c2ccccc21", "Potency": "inconclusive [inhibitor, full curve, poor fit]"}
{"compound": "NC(=S)N/N=C/c1ccc(OC(=O)c2cccnc2)cc1", "activity change, negative = inhibition": "inactive: 13.3%"}
{"compound": "CCC(C)n1c(SCC(=O)Nc2cc(C(C)(C)C)nn2-c2ccccc2)nc2ccccc2c1=O", "note": "(stereo not given)", "Potency": "active: 10.4 µM"}
{"compound": "Cc1ccc(S(=O)(=O)Nc2c(C)n(C)n(-c3ccccc3)c2=O)cc1C(=O)NCc1ccccc1", "Potency": "inconclusive [inhibitor, single point]"}
{"compound": "CCOC(=O)c1[nH]ncc1CN1CCCC(C(=O)c2ccc(SC)cc2)C1", "note": "(stereo not given)", "Potency": "inconclusive [inhibitor, partial curve, poor fit]"}
{"compound": "O=C(NNc1c(Cl)cccc1Cl)c1cccs1", "Potency": "inconclusive [inhibitor, partial curve]"}
{"compound": "O=C(Cc1c(C(=O)O)[nH]c2ccccc12)Nc1ccc2c(c1)OCO2", "Potency": "inconclusive [inhibitor, full curve, poor fit]"}
{"compound": "CCCCCOc1ccc(C(=O)OC(C)C(=O)NCc2ccco2)cc1", "note": "(stereo not given)", "Potency": "inconclusive [inhibitor, full curve, poor fit]"}
{"compound": "O=C(C1=C[C@H](c2ccc(C(F)(F)F)cc2)C[C@H](OCCCCO)O1)N1CCN(Cc2ccc3c(c2)OCO3)CC1", "Potency": "active: 5.86 µM"}
{"compound": "CCOC(=O)N1CCC(NS(=O)(=O)c2ccc(C#N)cc2)CC1", "Potency": "inconclusive [inhibitor, full curve, poor fit]"}
{"compound": "CN(C)CCOC(=O)C12CC3CC(C1)CC(C(=O)OCCN(C)C)(C3)C2", "activity change, negative = inhibition": "inactive: 65.6%"}
{"compound": "CCOC(=O)c1c(C)[nH]c(C(=O)CSc2nc3ccccc3o2)c1C", "Potency": "inconclusive [inhibitor, single point]"}
{"compound": "CCC(NC(=O)NNC(N)=S)(C(F)(F)F)C(F)(F)F", "activity change, negative = inhibition": "inactive: 5.59%"}
{"compound": "CCNC(=O)O/N=C(\\C)c1sc(-c2ccccc2)nc1C", "activity change, negative = inhibition": "inactive: 16.8%"}
{"compound": "Cc1cccc(CCNC(=O)C2CCN(S(=O)(=O)c3ccccc3)CC2)c1", "Potency": "inconclusive [inhibitor, single point]"}
{"compound": "CCOc1ccc(C(=O)CCC(=O)NNC(=O)c2ccncc2)cc1", "activity change, negative = inhibition": "inactive: 2.98%"}
{"compound": "CCn1c(SCC(=O)Nc2cc(C)on2)nnc1-c1c[nH]c2ccccc12", "Potency": "inconclusive [inhibitor, single point]"}
{"compound": "Cc1ccc(-c2noc(CN(C(=O)c3cccs3)C(C)C)n2)cc1", "activity change, negative = inhibition": "inactive: -10.2%"}
{"compound": "CCCCOC(=O)c1ccccc1C(=O)OCCCC", "activity change, negative = inhibition": "inactive: -18.5%"}
{"compound": "CCC(Sc1nc2ccccc2s1)C(=O)Nc1cc(C)on1", "note": "(stereo not given)", "Potency": "inconclusive [inhibitor, single point]"}
{"compound": "CCCN(CC(=O)Nc1ccccc1C)C(=O)C1CCCN(C(=O)c2ccc(Cl)cc2)C1", "note": "(stereo not given)", "Potency": "inconclusive [inhibitor, single point]"}
{"compound": "CCC(=O)N1CCc2cc(Br)cc(S(=O)(=O)CCC(=O)NCC3CCCO3)c21", "note": "(stereo not given)", "Potency": "inconclusive [inhibitor, single point]"}
{"compound": "Cc1ccc(C(=O)CN2C(=O)NC3(CCOc4ccccc43)C2=O)s1", "note": "(stereo not given)", "Potency": "inconclusive [inhibitor, single point]"}
{"compound": "O=C1CCN(C(=S)NCCc2ccccc2)CC1", "Potency": "inconclusive [inhibitor, single point]"}
{"compound": "Cc1ccc(S(=O)(=O)N2CCC(CN3C(=O)c4cccc5cccc(c45)C3=O)CC2)cc1", "Potency": "inconclusive [inhibitor, partial curve]"}
{"compound": "N#Cc1cccc(NC(=O)c2nc(-c3ccccc3)n(-c3ccccc3)n2)c1", "Potency": "inconclusive [inhibitor, single point]"}
{"compound": "CC1(C)CC(=O)c2cc(OCC(=O)N3CCN(c4ccccc4F)CC3)ccc2O1", "Potency": "inconclusive [inhibitor, partial curve, poor fit]"}
{"compound": "CCCN1CCN(CCCNC(=O)c2cc3c(s2)-c2c(C)cccc2OC3)CC1", "Potency": "inconclusive [inhibitor, single point]"}
{"compound": "COc1cccc(C2(c3cccc(OC)c3)CC2C(=O)Nc2ccc(F)cc2)c1", "note": "(stereo not given)", "Potency": "inconclusive [inhibitor, single point]"}
{"compound": "CCCCN(CCCC)C(=O)c1nsnc1-c1ccccc1O", "activity change, negative = inhibition": "inactive: -2.28%"}
{"compound": "C=CCN1CCc2c(cc(O)c(O)c2Cl)C(c2ccccc2)C1", "note": "(stereo not given)", "Potency": "inconclusive [inhibitor, single point]"}
{"compound": "C=CCc1ccc(OCCOCCOc2cccc3ccc(C)nc23)c(OC)c1", "Potency": "inconclusive [inhibitor, single point]"}
{"compound": "CC12CCC(C/C1=N\\N=C1\\NC(=O)/C(=C\\c3cccc(Br)c3)S1)C2(C)C", "note": "(stereo not given)", "Potency": "inconclusive [inhibitor, partial curve, poor fit]"}
{"compound": "COc1cccc(N/C(SCc2cccc([N+](=O)[O-])c2)=C(/C#N)C(N)=O)c1", "Potency": "inconclusive [inhibitor, single point]"}
{"compound": "COc1ccc(-c2nc3c(c(=O)[nH]c(=O)n3Cc3ccccc3)n2Cc2ccccc2)cc1", "Potency": "inconclusive [inhibitor, partial curve, poor fit]"}
{"compound": "O=C(CC(=O)c1ccccc1)Nc1ccc(Cl)cc1", "activity change, negative = inhibition": "inactive: 33.8%"}
{"compound": "COc1ccc(Cc2nnc(NC(=O)C3CC(=O)N(c4ccccc4C)C3)s2)cc1OC", "note": "(stereo not given)", "Potency": "inconclusive [inhibitor, partial curve]"}
{"compound": "CCOc1ccc(NC(=S)N2CCN(S(C)(=O)=O)CC2)cc1", "Potency": "inconclusive [inhibitor, single point]"}
{"compound": "COc1ccc(C2CC(=O)c3cnc(NC(=O)c4ccccc4)nc3C2)c(OC)c1", "note": "(stereo not given)", "Potency": "inconclusive [inhibitor, single point]"}
{"compound": "Cc1ccc(S(=O)(=O)N2CCN(CC(=O)NC3CCCc4ccccc43)CC2)cc1C", "note": "(stereo not given)", "Potency": "inconclusive [inhibitor, single point]"}
{"compound": "C=C(C)C1CC=C(C)/C(=N/NC(=O)c2ccccc2[N+](=O)[O-])C1", "note": "(stereo not given)", "Potency": "inconclusive [inhibitor, partial curve]"}
{"compound": "Oc1ccccc1-c1nc(NC2CCCC2)c2ccccc2n1", "Potency": "inconclusive [inhibitor, partial curve, poor fit]"}
{"compound": "COc1cccc(CN2CCNC(=O)C2CC(=O)N(Cc2cnn(C)c2)C(C)C)c1", "note": "(stereo not given)", "activity change, negative = inhibition": "inactive: 8.47%"}
{"compound": "O=Cc1ccc(O)cc1O", "activity change, negative = inhibition": "inactive: -3.59%"}
{"compound": "CCN(c1cccc(C)c1)C(C(=O)Nc1ccc(OC)cc1)c1cc2c(cc1[N+](=O)[O-])OCO2", "note": "(stereo not given)", "activity change, negative = inhibition": "inactive: -5.05%"}
